In PubChem BioAssay AID1479 (National Center for Advancing Translational Sciences (NCATS), 2009):
Hit rate of the full screen: of about 280,000 compounds, about 820 (0.29%) were called active. This list was built around the results that the source calls inconclusive (neither active nor inactive); the mix of calls is not that of the screen. The call rests on the fitted dose curve; in most records, active means well fitted curve in either direction with a large enough effect; inconclusive means small, poorly fitted or top-dose-only effect; inactive means flat fitted curve, though single readings scatter. No potency is given beside an inconclusive call; the fits are too rough.

assay: Total Fluorescence Counterscreen for Inhibitors of the Interaction of Thyroid Hormone Receptor and Steroid Receptor Coregulator 2; details: TRb/SRC2 Texas Red total fluorescence interference; series mostly up to 106 µM; fluorescence change, negative = quenching: at the top concentration
Method in brief: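 Flags fluorescent or light-absorbing compounds by total fluorescence, S + 2P, at 555 nm excitation and 632 nm emission. Mixture: 20 nM Texas Red SRC2 peptide, 0.6 uM human TRb LBD, 1 uM T3, 5% DMSO; compound exposure 5 h at ambient temperature.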
On the % scale 0 is the no-effect control and ±100 the full control effect; potency means the concentration at half of the fitted maximal effect; tags describe the fitted curve by direction and shape or compound fluorescence and quenching.

Row | Compound | fluorescence change, negative = quenching | Potency
1 | COc1ccc(-c2cc3nc(-c4ccccc4)cc(N4CCCC(O)C4)n3n2)cc1 (centres undefined) | inactive: -7.3% | 
2 | c1nnc(NC2=NCCC2)s1 | inactive: 0.582% | 
3 | CC1CCCN(c2csc3ccccc3c2=O)C1 (centres undefined) | inactive: 0.151% | 
4 | CCOC(=O)C1=C(CN2CCN(c3ccccc3F)CC2)NC(=O)NC1c1ccc(OC)cc1 (centres undefined) |  | inconclusive [quencher, full curve]
5 | COc1ccc(CCNC(=O)c2cc(-c3ccc(Cl)cc3)on2)cc1OC |  | inconclusive [falling, full curve, poor fit]
6 | O=C(NCc1ccccc1)c1ccc2nc(-c3ccco3)c(-c3ccco3)nc2c1 |  | inconclusive [quencher, partial curve]
7 | Cc1cc(=O)oc2cc(Oc3ccc([N+](=O)[O-])cc3[N+](=O)[O-])ccc12 |  | inconclusive [falling, partial curve, poor fit]
8 | CCOC(=O)NN1C(=O)c2ccccc2NC1c1ccccc1 (centres undefined) |  | inconclusive [quencher, full curve]
9 | CCOC(=O)c1ccc(NC(=O)CCS(=O)(=O)c2ccc3c(c2)oc(=O)n3C)cc1 | inactive: -4.02% | 
10 | Cc1cc(N)ccc1-n1c(C)ccc1C |  | active: 12.6 µM [fluorescent]
11 | CCOc1ccccc1CNC(=O)c1cnc2sc(N3CCCC3)nn2c1=O |  | inconclusive [falling, partial curve, poor fit]
12 | O=C(NCc1cccs1)C1CCN(C(=O)N2CCOc3ccccc32)CC1 |  | active: 0.562 µM [quencher]
13 | O=C(Nc1c(-c2ccccc2)nc2ccccn12)c1ccc(Br)cc1 | inactive: 0.908% | 
14 | O=C(N/N=C/c1ccc(-c2ccccc2C(=O)O)o1)c1cccs1 |  | inconclusive [falling, partial curve, poor fit]
15 | CCc1ccc(-n2nc(C)c3c(C(=O)NCCc4ccc(OC)c(OC)c4)cc(C)nc32)cc1 | inactive: 1.61% | 
16 | COc1cc(/C=C2\SC(=S)N(CCC(=O)Nc3ccccc3)C2=O)cc(OC)c1OC | inactive: 1.33% | 
17 | COc1ccc(N2CCN(S(=O)(=O)CCNC(=O)c3ccc(C(F)(F)F)cc3)CC2)cc1 |  | inconclusive [falling, partial curve, poor fit]
18 | O=C1OC2(c3cc(I)c(O)c(I)c3Oc3c2cc(I)c(O)c3I)c2c(Cl)c(Cl)c(Cl)c(Cl)c21 |  | active: 7.08 µM [fluorescent]
19 | CCOC(=O)c1ccc(N2CSC3=C(C#N)C(c4ccc(OC)cc4OC)CC(=O)N3C2)cc1 (centres undefined) | inactive: -5.27% | 
20 | CCOc1ccc(/C=C(\C#N)C(=O)Nc2sc3c(c2C(=O)OC)C(C(=O)OC)CC3)cc1OC (centres undefined) |  | inconclusive [falling, full curve, poor fit]
21 | O=C(CSc1nccn1Cc1ccc(F)cc1)Nc1ccc2c(c1)OCO2 |  | inconclusive [quencher, full curve]
22 | CCN(Cc1ccncc1)Cc1nc(Cc2ccccc2Cl)no1 | inactive: 1.71% | 
23 | CC(=O)Nc1ccc(S(=O)(=O)Nc2nc3ccc([N+](=O)[O-])cc3s2)cc1 |  | inconclusive [falling, single point]

Row | Compound | fluorescence change, negative = quenching | Potency
24 | CC(=O)Nc1ccc(-n2c(CCC(=O)O)ccc2-c2ccc(C)cc2)cc1 | inactive: -1.57% | 
25 | CCOC(=O)C1CCN(C(=O)Cn2nc(C)n3c(cc4cc(C)ccc43)c2=O)CC1 |  | inconclusive [quencher, full curve]
26 | O=C(Nc1ccc(Cl)c(Cl)c1)Nc1nnc(CSc2ccccc2)s1 | inactive: -2.59% | 
27 | CCCCN=C1NC(=O)C(CC(=O)NCCc2ccc(OC)cc2)S1 (centres undefined) |  | inconclusive [falling, full curve, poor fit]
28 | Cc1ccc(S(=O)(=O)NC(C)(C)CSc2nnc(Nc3ccccc3)s2)cc1 | inactive: -2.77% | 
29 | CCn1c(CN2CCOCC2)nc2cc(NC(=O)c3ccc([N+](=O)[O-])cc3)ccc21 |  | inconclusive [falling, full curve, poor fit]
30 | COc1cc(OC)cc(C(=O)Nc2cccc(-c3cn4cccnc4n3)c2)c1 |  | inconclusive [quencher, full curve]
31 | CCCN1CCc2[nH]c(=S)[nH]c(=O)c2C1 |  | inconclusive [falling, full curve, poor fit]
32 | O=C(Cn1c(-c2cccs2)cc2ccccc21)NCc1ccccc1Br |  | inconclusive [falling, partial curve, poor fit]
33 | CN(C)S(=O)(=O)c1ccc2c(c1)N(CC(=O)N1CCN(c3ccccc3F)CC1)CCS2 |  | inconclusive [quencher, full curve]
34 | O=[N+]([O-])c1ccc(N2CCCC2)cc1NC1CC1 | inactive: -0.976% | 
35 | O=C(CCCC(=O)N1CCN(c2ccc([N+](=O)[O-])cc2)CC1)c1ccccc1 | inactive: -1.96% | 
36 | O=C(N/N=C/C1=C(N2CCOCC2)C(=C\c2ccccc2)/CC1)Nc1ccccc1 | inactive: 1.28% | 
37 | COC(=O)c1c(NC(=O)C(C)Oc2ccc(Cl)cc2Cl)sc2c1CCCC2 (centres undefined) |  | inconclusive [falling, partial curve, poor fit]
38 | Cc1cc(C)c(/C=C/c2onc(C)c2S(=O)(=O)N2CCC(C(=O)NCC(C)c3ccccc3)CC2)c(C)c1 (centres undefined) |  | inconclusive
39 | N#CC1(C#N)C(c2ccccc2)OC23CCCCC2C1(C#N)C(=N)O3 (centres undefined) |  | inconclusive [fluorescent, partial curve]
40 | CCc1ccccc1NS(=O)(=O)c1ccc(-c2coc(C)n2)cc1 |  | active: 11.2 µM [quencher]
41 | N#C/C(=C/c1ccc(N2CCCCC2)o1)C(=O)Nc1ccc(Cl)cc1 | inactive: 21.8% | 
42 | COc1cccc(C2C(C(=O)Nc3ccc(Cl)cc3)=C(C)Nc3c(C(=O)Nc4ccccc4)cnn32)c1OC (centres undefined) |  | inconclusive [falling, full curve, poor fit]
43 | CCOc1cc2sc(N3CCC(C(=O)Nc4ccc(C(C)C)cc4)CC3)nc2cc1Br |  | inconclusive [quencher, full curve]
44 | COc1cccc(NC(=O)CCSc2ccc(C)cc2)c1 |  | inconclusive [quencher, full curve]
45 | Cc1cccc(-c2nc3c(cnn3-c3ccccc3)c(=O)n2-c2cccc(Cl)c2)c1 |  | inconclusive [falling, full curve, poor fit]
46 | Cc1ccccc1C(=O)N[C@H](C(=O)Nc1ccc(Cl)c(Cl)c1)C(C)C |  | inconclusive [falling, full curve, poor fit]

Row | Compound | fluorescence change, negative = quenching | Potency
47 | COc1cc(OC)c(OC)cc1/C=N/NC(=O)c1ccc2nc[nH]c2c1 | inactive: -8.72% | 
48 | CCOC(=O)c1cccc(NC(=O)c2cc(-c3ccc(Cl)s3)nc3ccccc23)c1 |  | inconclusive [falling, full curve, poor fit]
49 | CCN(CC)S(=O)(=O)c1cccc(C(=O)N/N=C/c2cc(OC)c(O)c(OC)c2)c1 |  | inconclusive [quencher, partial curve]
50 | COc1ccc(-c2cc(C(F)(F)F)n3nc(C(=O)Nc4sc5c(c4C#N)CCC(C)C5)cc3n2)cc1OC (centres undefined) |  | inconclusive [falling, full curve, poor fit]
51 | O=S(=O)(N/N=C\c1ccc2c(c1)OCO2)c1ccc(Cl)cc1 | inactive: -5.12% | 
52 | COc1ccc(NC(=O)CN2C(=O)CC(c3ccco3)Sc3ccccc32)cc1OC (centres undefined) | inactive: 2.04% | 
53 | CN1C2CCC1/C(=C\c1ccc(F)cc1)C(=O)/C2=C/c1ccc(F)cc1 | inactive: 0.708% | 
54 | CCOc1ccc(CN(C)CC(=O)Nc2ccc([N+](=O)[O-])cc2Cl)cc1 |  | inconclusive [falling, full curve, poor fit]
55 | Cc1ccc(N2C(=O)CSC23C(=O)N(CC(=O)Nc2ccccc2F)c2ccccc23)cc1C (centres undefined) | inactive: -2.8% | 
56 | COc1ccccc1-n1c(=O)n(C)c2c(C(N)=O)nc(-c3cc(OC)c(OC)c(OC)c3)nc21 |  | inconclusive [falling, full curve, poor fit]
57 | Cc1cc(F)ccc1NC(=O)c1c(C)oc2c1C1=NCCN1C=N2 |  | inconclusive [falling, full curve, poor fit]
58 | COc1ccc(C)cc1NC(=O)Nc1ccccc1 | inactive: -0.313% | 
59 | CCC1CN(C(=O)Nc2cc(Cl)ccc2C(=O)OC)c2ccccc2S1 (centres undefined) |  | inconclusive [falling, partial curve, poor fit]
60 | CN(C(=O)c1nn(C)c2c1CS(=O)(=O)c1ccccc1-2)c1cccc(Cl)c1 |  | inconclusive [falling, full curve, poor fit]
61 | COC(=O)c1cc2oc3ccccc3c2n1CC(=O)Nc1ccc(C)cc1C |  | inconclusive [quencher, full curve]
62 | CC(C)=NOCc1ccc(-c2cn([C@@H]3COC[C@@H]3O)nn2)cc1 |  | inconclusive [falling, partial curve, poor fit]
63 | CCOc1ccc(CNC(=O)Cn2c(=O)c3cccn3c3ccccc32)cc1 |  | inconclusive [falling, full curve, poor fit]
64 | O=C(Nc1ccc(F)cc1)c1nc[nH]c1C(=O)Nc1ccccc1[N+](=O)[O-] |  | inconclusive [falling, partial curve, poor fit]
65 | CN(Cc1nc2ccccc2c(=O)[nH]1)CC(O)COCc1ccco1 (centres undefined) | inactive: -0.82% | 
66 | Cc1ccc(S(=O)(=O)N2CCCCC2C(=O)NCc2ccco2)cc1 (centres undefined) | inactive: -4.46% | 
67 | CCC(=O)Nc1cnc(NC(=O)c2cccc(F)c2)cc1C | inactive: -4.3% | 
68 | CCOC(=O)c1c(NC(=O)COc2c(C)cc(Cl)cc2Cl)sc2c1CCCC2 |  | inconclusive [quencher, full curve]
69 | COc1cccc(CNC(=O)c2oc3c(c2C)-c2nn(Cc4cccc(Cl)c4)cc2CC3)c1 |  | inconclusive [quencher, partial curve]
